Assay results from publication PMC10668032.
The other results are listed elsewhere or left out. At the low end of the ranking the order means little.

Target: SIX1-Q177R homeodomain (UniProt Q15475)
Test: universal protein binding microarray
Settings: Universal all-10-mer PBM (8x60K, AMADID 030236), 300 nM GST-tagged protein, Alexa Fluor 488 anti-GST; buffer, salt, pH and temperature not stated; high values mean tight binding; most listed sequences are background and not binding sites; double strand, one strand shown

Sequence	binding signal
AGAGAACC	-0.0421 E-score
AATGTTAA	-0.0403 E-score
AGGTTACG	-0.248 E-score
ACCAAGTA	0.149 E-score
CCCCTAGA	0.0523 E-score
ATCGCTAC	0.0339 E-score
CCCTTGCA	-0.1 E-score
CCTTTAAA	-0.122 E-score
GCTTTGCA	-0.0747 E-score
CACGTTAG	0.102 E-score
ATTCGAAA	-0.286 E-score
CCTGGTAA	0.0114 E-score
CGCGAACC	0.0874 E-score
GCGATTGA	-0.13 E-score
CCTGATTA	-0.0132 E-score
AAATATCC	-0.00366 E-score
ACACCAGG	0.472 E-score
AGCCGTAC	-0.12 E-score
AGAGGGAG	-0.0887 E-score
AGCACACG	0.257 E-score
ATTAGTTG	-0.0561 E-score
CCCAAAGG	-0.00969 E-score
ACTGCTTC	-0.131 E-score
GGAGCATA	0.115 E-score
AGGCCGAC	-0.108 E-score

Sequence	binding signal
AAATTTGC	-0.271 E-score
CTCTTTGA	-0.153 E-score
AACGTGTG	0.154 E-score
GTTTGCCA	-0.113 E-score
ACCCTTTC	0.194 E-score
TCCATCAA	0.193 E-score
CTAATCAC	-0.0283 E-score
CGGCGCGA	0.0696 E-score
CGCCGATC	0.138 E-score
AAGCTATT	-0.296 E-score
CATATAGA	-0.00326 E-score
CGAAAAGC	-0.054 E-score
AGACAACC	0.0645 E-score
AAGGGCGG	0.00511 E-score
CTTGTGGA	-0.00257 E-score
GAATCGGC	-0.12 E-score
CGACGTCC	-0.214 E-score
CCCATAAC	0.0724 E-score
AGTAGATC	0.0583 E-score
ACAACGTC	-0.176 E-score
AGCCATTA	-0.136 E-score
AGACAGAC	-0.059 E-score
ATTGGATA	0.123 E-score
ACGAATAG	-0.0586 E-score
GAAGTGTC	0.387 E-score

Sequence	binding signal
AAGCCCTC	-0.144 E-score
AAGGGTCA	0.0935 E-score
AGAGTCAA	0.0608 E-score
AACCACTA	-0.0959 E-score
ATTGCGTG	0.183 E-score
CTGAGGAA	-0.26 E-score
ATCAAAGC	-0.0517 E-score
AAGGCCAA	-0.215 E-score
CGCTTAGA	-0.102 E-score
GGATTCCA	0.0636 E-score
TGCTTACA	0.171 E-score
GCAACACC	0.467 E-score
GTGCCTTA	-0.0626 E-score
AGATGGAT	-0.0602 E-score
CTCCACGA	-0.162 E-score
GCACAGAA	-0.0466 E-score
GGCTGCCA	-0.0727 E-score
CTGTGGGC	-0.193 E-score
AAAGGCAC	-0.135 E-score
AGTGTTTC	0.299 E-score
AAAACTAT	-0.0949 E-score
ATAAGTTA	-0.112 E-score
CCGACGTA	0.044 E-score
GACGGAAC	-0.0301 E-score
GAGGTGGA	-0.144 E-score

Sequence	binding signal
AGGTCCTC	-0.205 E-score
CCTAACCC	0.0947 E-score
ATACTTCA	-0.177 E-score
AGGGCACC	0.00999 E-score
AAGCGACA	0.229 E-score
ACGGCAGC	-0.0508 E-score
CTGCATAC	0.0404 E-score
CAGGCGTA	-0.0263 E-score
GCTGTTAA	-0.291 E-score
AATAAAGC	-0.243 E-score
CAGTAGTC	-0.0632 E-score
ACCGAACA	0.196 E-score
GGTTGCAC	0.183 E-score
CTCAGATC	-0.0696 E-score
AACATGCC	-0.181 E-score
ATCAACAT	-0.126 E-score
CTATATCA	0.00291 E-score
ACTGACTG	-0.0697 E-score
CAGTGACG	-0.0921 E-score
CAGCAGAC	-0.101 E-score
GGTGCACA	0.268 E-score
GTCGATAA	-0.0907 E-score
GCGCCGCC	-0.0111 E-score
ACGCCACG	0.171 E-score
ACTCCACG	0.0447 E-score

Sequence	binding signal
AAATGTGT	0.122 E-score
GTTGATGA	-0.163 E-score
CTAGTTTA	-0.193 E-score
AGGAACAT	-0.141 E-score
GCCTCAAC	-0.107 E-score
GAAACTGA	-0.0308 E-score
CGGGTTTC	0.101 E-score
ACCTACCA	0.0412 E-score
ACAGGCCC	-0.113 E-score
ACGGACAA	-0.0562 E-score
CGCAACTC	0.0168 E-score
GCCTGTAC	-0.0512 E-score
AAGTACCG	-0.125 E-score
CAGAACGC	-0.153 E-score
CGGCGAAC	-0.0735 E-score
GACTCGGA	0.119 E-score
CGACCGAG	-0.151 E-score
CAAGCTAG	-0.164 E-score
ACTACGTG	0.21 E-score
ATGATGGC	-0.195 E-score
AAGTAAAT	-0.0782 E-score
ATAGCATG	-0.287 E-score
TCCCGAGA	-0.0243 E-score
AGCGCCCG	-0.113 E-score
AGACCCTG	-0.0173 E-score

Sequence	binding signal
ACTCGGGA	0.0555 E-score
AAGCGGTC	-0.0594 E-score
CCGTTGTC	-0.174 E-score
ACGGGCTA	0.055 E-score
ACGTTCTG	-0.21 E-score
GCTCCGCC	-0.165 E-score
AGTCGACG	0.0329 E-score
CGGCATGA	-0.0159 E-score
GCCTGTCA	-0.0986 E-score
CTTGACTC	0.125 E-score
CGTCGTCA	-0.131 E-score
CACTTGGC	0.0343 E-score
AATTCAAA	-0.242 E-score
CATGTAAC	0.119 E-score
ACTCACGA	-0.0313 E-score
GGTGTAGA	0.473 E-score
ATAGGTCG	-0.104 E-score
GACGCCAA	-0.0144 E-score
GAATGATC	-0.126 E-score
ACATTTCT	-0.152 E-score
CAACTAAC	0.108 E-score
AAAACCCA	-0.00103 E-score
AGCTACCC	0.0582 E-score
GTATCGCA	0.234 E-score
ATGCAGGA	0.15 E-score

Sequence	binding signal
GGATTGCA	-0.122 E-score
TCACATAA	-0.124 E-score
CCAAGATC	-0.108 E-score
AGGGGCGC	-0.0975 E-score
ACCTCCCA	0.191 E-score
ACCTCCCT	0.0692 E-score
CGACCTCA	0.168 E-score
CGGCACGC	0.0759 E-score
TGATGGAA	-0.0859 E-score
ACCGCCGG	0.103 E-score
ACCGGGAA	-0.0276 E-score
CAATACCA	0.103 E-score
AGAGATCT	-0.0869 E-score
CCTTCCCA	0.085 E-score
ATTTGGCC	-0.223 E-score
GGGCGTAA	0.0918 E-score
CAGAGTTC	-0.142 E-score
TCCTGGCA	-0.0298 E-score
GGAACGCC	-0.029 E-score
ATTGGTGC	0.16 E-score
TCATCGCA	-0.03 E-score
AAATTGGA	0.0506 E-score
CTGCCTGA	-0.114 E-score
TCAGCCGA	0.0195 E-score
GCAGGCAC	-0.0133 E-score

Sequence	binding signal
CTTACAAG	0.0437 E-score
ATGGAGTC	0.232 E-score
ACTTAGAC	-0.00349 E-score
TCACTACA	0.225 E-score
AACATAGG	-0.149 E-score
GAAACGGA	-0.129 E-score
CGAAGCAA	-0.116 E-score
CACCGTGA	0.277 E-score
TAACGGGA	-0.128 E-score
CTGAATAA	-0.196 E-score
AGCGAATA	-0.112 E-score
CGGTGTAG	0.487 E-score
CCAAGTAG	0.0319 E-score
CTTCGGGA	-0.0649 E-score
ACCGACGA	0.0311 E-score
CAATGTAG	0.0714 E-score
CTGTAAGA	0.065 E-score
CCTATGGA	0.0385 E-score
CTGTTGTA	-0.167 E-score
CCCGATCG	0.076 E-score
AGCGGCTC	-0.0445 E-score
CACAACAG	-0.121 E-score
AGTCCAGA	-0.163 E-score
CACTTAGA	0.128 E-score
AGAGCGCT	-0.247 E-score

Sequence	binding signal
GCGCGCGA	-0.0938 E-score
CGCCATTC	-0.0918 E-score
TCCAGAAA	0.0258 E-score
CCAAACGC	-0.064 E-score
CGACCCGC	0.0842 E-score
TAATAAAA	-0.1 E-score
ATAGCAGC	-0.139 E-score
TAATGCCA	-0.102 E-score
CAACGGCA	-0.0641 E-score
ACTAGGAC	-0.0451 E-score
AAACTCGA	-0.0959 E-score
GCCTGTCC	-0.141 E-score
AGACGCCG	-0.0368 E-score
GAAATTCC	-0.27 E-score
AGATGAAG	-0.133 E-score
ACGCCAAA	0.03 E-score
AGGGCAAT	-0.228 E-score
CGCCGGGC	0.0211 E-score
GATGGCAA	-0.184 E-score
